Columns and labels:
[1] = molecular target: T1, HCoV-OC43 Spike protein, full length, C-terminally fused with EGFP (HCoV-OC43, UniProt P36334 14-1353); test: flow cytometry, HEK293 cells expressing full-length Spike-EGFP, anti-hIg-PE
T1 construct: whole, on cells
T1 sequence: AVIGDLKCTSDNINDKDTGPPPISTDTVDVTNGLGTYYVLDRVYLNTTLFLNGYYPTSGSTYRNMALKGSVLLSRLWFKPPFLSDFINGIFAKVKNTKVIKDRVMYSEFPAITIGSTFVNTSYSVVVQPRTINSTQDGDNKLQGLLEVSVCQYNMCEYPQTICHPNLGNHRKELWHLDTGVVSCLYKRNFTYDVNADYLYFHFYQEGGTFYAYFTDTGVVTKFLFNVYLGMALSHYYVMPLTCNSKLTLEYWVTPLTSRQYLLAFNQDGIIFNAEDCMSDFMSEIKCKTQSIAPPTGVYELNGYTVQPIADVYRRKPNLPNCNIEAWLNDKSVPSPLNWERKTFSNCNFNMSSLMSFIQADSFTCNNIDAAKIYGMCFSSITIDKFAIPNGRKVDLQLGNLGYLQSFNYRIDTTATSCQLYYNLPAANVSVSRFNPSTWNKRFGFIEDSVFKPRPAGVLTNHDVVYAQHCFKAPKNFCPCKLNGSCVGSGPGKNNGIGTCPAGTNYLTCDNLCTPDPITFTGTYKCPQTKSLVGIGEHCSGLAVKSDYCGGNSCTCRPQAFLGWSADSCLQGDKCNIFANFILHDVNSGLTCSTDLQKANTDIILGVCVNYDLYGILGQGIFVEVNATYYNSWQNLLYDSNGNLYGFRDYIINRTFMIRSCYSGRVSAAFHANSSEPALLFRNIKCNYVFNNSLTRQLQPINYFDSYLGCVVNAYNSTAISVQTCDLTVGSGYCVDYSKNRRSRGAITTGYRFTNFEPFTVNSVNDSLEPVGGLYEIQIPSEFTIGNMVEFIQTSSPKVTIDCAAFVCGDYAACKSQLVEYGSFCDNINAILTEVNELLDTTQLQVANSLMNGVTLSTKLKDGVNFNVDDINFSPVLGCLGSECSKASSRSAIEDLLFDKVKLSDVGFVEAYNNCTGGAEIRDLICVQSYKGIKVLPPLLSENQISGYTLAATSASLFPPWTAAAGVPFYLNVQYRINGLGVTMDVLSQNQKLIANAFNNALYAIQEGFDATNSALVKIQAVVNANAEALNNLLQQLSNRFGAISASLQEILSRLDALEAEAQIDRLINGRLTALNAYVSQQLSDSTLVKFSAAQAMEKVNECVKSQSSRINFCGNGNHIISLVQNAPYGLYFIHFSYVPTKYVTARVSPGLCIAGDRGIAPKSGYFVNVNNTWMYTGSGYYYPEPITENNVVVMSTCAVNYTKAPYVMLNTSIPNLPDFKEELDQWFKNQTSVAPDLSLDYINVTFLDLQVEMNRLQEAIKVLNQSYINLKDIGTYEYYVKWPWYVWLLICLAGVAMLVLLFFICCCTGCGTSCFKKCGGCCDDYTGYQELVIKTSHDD

[2] = molecular target: T2, HCoV-NL63 Spike protein, full length, C-terminally fused with EGFP (HCoV-NL63, UniProt Q6Q1S2 19-1356); test: as above
T2 construct: whole, on cells
T2 sequence: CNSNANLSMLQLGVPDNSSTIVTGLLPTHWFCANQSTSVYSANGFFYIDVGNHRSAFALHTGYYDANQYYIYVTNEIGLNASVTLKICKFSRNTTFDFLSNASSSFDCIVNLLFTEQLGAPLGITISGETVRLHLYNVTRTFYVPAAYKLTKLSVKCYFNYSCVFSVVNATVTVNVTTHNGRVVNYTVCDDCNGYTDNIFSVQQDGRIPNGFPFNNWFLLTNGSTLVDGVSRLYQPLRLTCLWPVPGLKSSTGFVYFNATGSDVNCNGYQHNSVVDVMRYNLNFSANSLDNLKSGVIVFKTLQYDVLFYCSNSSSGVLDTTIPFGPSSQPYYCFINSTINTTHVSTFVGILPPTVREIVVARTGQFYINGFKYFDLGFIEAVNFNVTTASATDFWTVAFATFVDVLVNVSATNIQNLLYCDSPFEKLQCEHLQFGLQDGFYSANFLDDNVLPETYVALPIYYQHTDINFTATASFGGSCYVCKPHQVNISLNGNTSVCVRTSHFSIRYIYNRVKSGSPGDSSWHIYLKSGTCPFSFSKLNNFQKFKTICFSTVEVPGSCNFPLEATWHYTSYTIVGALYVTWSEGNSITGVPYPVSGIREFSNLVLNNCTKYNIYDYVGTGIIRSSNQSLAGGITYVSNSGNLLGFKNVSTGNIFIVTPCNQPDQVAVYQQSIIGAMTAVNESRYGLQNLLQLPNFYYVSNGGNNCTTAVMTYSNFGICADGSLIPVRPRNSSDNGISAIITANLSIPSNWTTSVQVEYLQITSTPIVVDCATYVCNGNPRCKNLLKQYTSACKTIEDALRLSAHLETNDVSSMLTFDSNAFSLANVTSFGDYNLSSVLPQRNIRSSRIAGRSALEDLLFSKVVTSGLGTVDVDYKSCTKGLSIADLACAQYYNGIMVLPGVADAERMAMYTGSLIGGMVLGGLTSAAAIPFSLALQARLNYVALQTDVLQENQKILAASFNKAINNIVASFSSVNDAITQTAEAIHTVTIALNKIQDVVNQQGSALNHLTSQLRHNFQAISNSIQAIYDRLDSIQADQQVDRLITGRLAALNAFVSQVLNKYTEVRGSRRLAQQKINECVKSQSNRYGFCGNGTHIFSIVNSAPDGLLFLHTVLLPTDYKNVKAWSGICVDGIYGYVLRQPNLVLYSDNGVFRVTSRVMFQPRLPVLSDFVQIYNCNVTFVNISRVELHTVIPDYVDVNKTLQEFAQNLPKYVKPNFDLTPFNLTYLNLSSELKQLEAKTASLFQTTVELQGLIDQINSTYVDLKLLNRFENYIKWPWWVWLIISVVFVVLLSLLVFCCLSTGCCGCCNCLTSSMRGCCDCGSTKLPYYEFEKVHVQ

B1: COV2-32-26-Fc (Fc fusion)
chain: QLQLVESGGDLVQPGESLRLSCVASGRTFGTYRIGWFRQAPGKEREGVSCIFWSGGGASYADSVRGRFTISRENAKNAVYLEMNSLKPEDTAVYYCAARAPTTQEYDYWGQGTQVTVSS[human IgG1 Fc with changes not listed]
B1: no binding [1]; no binding [2].

B2: COV2-214-24-Fc (Fc fusion)
chain: QLQLVESGGDLVQPGESLRLSCVASGRTVSMYAIGWFRQAPGKEREGVSCISRSGRSTSYADSVRGRFTISRENAKNAVYLEMNSLKPEDTAVYYCAARDGGLHYALYVEASHYNYWGQGTQVTVSS[human IgG1 Fc with changes not listed]
B2: no binding [1]; no binding [2].

B3: COV2-153-18-Fc (Fc fusion)
chain: QLQLVESGGDLVQPGESLRLSCVASGRTVSSYVIGWFRQAPGKEREGVSCISRSGIITSYADSVRGRFTISRENAKNAVYLEMNSLKPEDTAVYYCAAAQTQVLPTEDRSYDYWGQGTQVTVSS[human IgG1 Fc with changes not listed]
B3: no binding [1]; no binding [2].

B4: COV2-360-3-Fc (Fc fusion)
chain: QLQLVESGGDLVQPGESLRLSCVASGFTLDSYAIGWFRQAPGKEREGVSCITKHGGTTSYADSVRGRFTISRENAKNAVYLEMNSLKPEDTAVYYCAADHRALRFGCAVVPGPYDYWGQGTQVTVSS[human IgG1 Fc with changes not listed]
B4: no binding [1]; no binding [2].

B5: COV2-124-20-Fc (Fc fusion)
chain: QLQLVESGGDLVQPGESLRLSCVASGRTFSSYAIGWFRQAPGKEREGVSCISSGGITSYADSVRGRFTISRENAKNAVYLEMNSLKPEDTAVYYCAANRGRFTGWRSLTDYTYWGQGTQVTVSS[human IgG1 Fc with changes not listed]
B5: no binding [1]; no binding [2].

B6: COV2-116-9-Fc (Fc fusion)
chain: QLQLVESGGDLVQPGESLRLSCVASGFTLDYYAIGWFRQAPGKEREGVSCISSSGTSTSYADSVRGRFTISRENAKNAVYLEMNSLKPEDTAVYYCAALQGSYYYTSLHQTEYDYWGQGTQVTVSS[human IgG1 Fc with changes not listed]
B6: no binding [1]; no binding [2].

B7: COV2-171-11-Fc (Fc fusion)
chain: QLQLVESGGDLVQPGESLRLSCVASGFTLDYYAIGWFRQAPGKEREGVSCISPSGTSTSYADSVRGRFTISRENAKNAVYLEMNSLKPEDTAVYYCAAANPSYYYCSGYPHEYDDWGQGTQVTVSS[human IgG1 Fc with changes not listed]
B7: no binding [1]; no binding [2].

B8: COV2-187-2-Fc (Fc fusion)
chain: QLQLVESGGDLVQPGESLRLSCVASGLSLEHYAIGWFRQAPGKEREGVSCIDSSGGSTSYADSVRGRFTISRENAKNAVYLEMNSLKPEDTAVYYCAALQGSYYYTSLHQTEYDYWGQGTQVTVSS[human IgG1 Fc with changes not listed]
B8: no binding [1]; no binding [2].

B9: COV2-151-23-Fc (Fc fusion)
chain: QLQLVESGGDLVQPGESLRLSCVASASGRTSSTIGWFRQAPGKEREGVSCITWSGGSTSYADSVRGRFTISRENAKNAVYLEMNSLKPEDTAVYYCAAGLSPLMLTASRRYEYWGQGTQVTVSS[human IgG1 Fc with changes not listed]
B9: no binding [1]; no binding [2].

B10: COV2-114-1-Fc (Fc fusion)
chain: QLQLVESGGDLVQPGESLRLSCVASGLSLEHYAIGWFRQAPGKEREGVSCISDSGATRSYADSVRGRFTISRENAKNAVYLEMNSLKPEDTAVYYCSATPGAFRTCAFRDFSHLANWGQGTQVTVSS[human IgG1 Fc with changes not listed]
B10: no binding [1]; no binding [2].

B11: COV2-39-19-Fc (Fc fusion)
chain: QLQLVESGGDLVQPGESLRLSCVASGRTFTRYPIGWFRQAPGKEREGVSCISGSGIITSYADSVRGRFTISRENAKNAVYLEMNSLKPEDTAVYYCAVDNAPTSSLPLTPGEYDYWGQGTQVTVSS[human IgG1 Fc with changes not listed]
B11: no binding [1]; no binding [2].

B12: COV2-120-17-Fc (Fc fusion)
chain: QLQLVESGGDLVQPGESLRLSCVASGHTGSTYIIGWFRQAPGKEREGVSCISRSGILRSYADSVRGRFTISRENAKNAVYLEMNSLKPEDTAVYYCAARDSLTGVIGNTPGEYDYWGQGTQVTVSS[human IgG1 Fc with changes not listed]
B12: no binding [1]; no binding [2].

B13: COV2-331-25-Fc (Fc fusion)
chain: QLQLVESGGDLVQPGESLRLSCVASGFTFSSYAIGWFRQAPGKEREGVSCLDVTGRSTSYADSVRGRFTISRENAKNAVYLEMNSLKPEDTAVYYCAAVYTPFRFAFKTDPDRQDHWGQGTQVTVSS[human IgG1 Fc with changes not listed]
B13: no binding [1]; no binding [2].

B14: COV2-18-21-Fc (Fc fusion)
chain: QLQLVESGGDLVQPGESLRLSCVASGRTFSTYAIGWFRQAPGKEREGVSCISPSRIITSYADSVRGRFTISRENAKNAVYLEMNSLKPEDTAVYYCAADSSYGGRLGRRIDDYEYWGQGTQVTVSS[human IgG1 Fc with changes not listed]
B14: no binding [1]; no binding [2].

Reference: patent US20230331822A1 (published 2023)
